The values that follow come from article PMC12040169 (PLOS Biology, 2025).

Molecules are shown by their SMILES. Some of the results follow.

In this assay the test system is T1, C. trachomatis L2/434/Bu expressing GFP (CTL2-GFP).
T1 construct: L2/434/Bu GFP intracellular growth in HeLa cells
More on the design: species or system HeLa; C. trachomatis total inclusion area by high-content imaging, normalised to DMSO. Conditions: total inclusion area; 28.5 h, 10 µM; inhibitor. The procedure, abridged: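 Following bulk GFP and resorufin fluorescence reads, infected cells were fixed, Hoechst-stained and imaged on a high-content platform. Inclusion total area and number per well served as growth proxies; nuclei counts indicated host viability. MICs were derived as for the fluorescence assay.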
As for `COc1ccc(Sc2cccc(C(F)(F)F)n2)cc1OC` [CBK093769], the “% of control remaining” value is reported as 82.0549.

In the case of `CCOC(=O)CN1CCC(Oc2nccnc2OCCN2CCOCC2)CC1` [CBK082929], the “% of control remaining” value stood at 85.1055.

With `Cc1ccc(C(=O)Nc2ccc3[nH]ccc3c2)cc1Cl` [CBK159677], the “% of control remaining” value is given as 111.471.

With `CCOC(=O)CNC(=S)N[C@H]1CC[C@@]2(c3cccnc3)CCN(Cc3ccccc3)[C@H]2C1` [CBK028453], the “% of control remaining” value came out at 63.5472.

Consider `O=C(CSc1ncnc2c1oc1ccccc12)NCc1ccccc1` [CBK287397], for which the “% of control remaining” value worked out at 81.1793.

In the case of `Cc1cc(C(=O)Nc2cccc(-c3nc4cc(Cl)ccc4o3)c2C)ccc1[N+](=O)[O-]` [CBK262949], the “% of control remaining” value came out at 100.431.

Turning to `c1cc(-c2cnn(-c3ccc4c(c3)CCO4)n2)cs1` [CBK112861], the “% of control remaining” value is given as 92.4949.

Turning to `CCCc1[nH]nc(O)c1Cc1ccc(C(C)(C)C)cc1` [CBK075028], the “% of control remaining” value was found to be 22.2937.

As for `O=C(O)CCCC(=O)N1N=C(c2ccccc2)CC1c1ccc2nccnc2c1` (centres unmarked) [CBK286752], the “% of control remaining” value was determined as 108.588.

As for `Oc1ccc2[nH]c3c(c2c1)CCNC31CCN(CCOc2ccccc2)C1` (centres unmarked) [CBK081496], the “% of control remaining” value is listed as 107.43.

On to `COc1ccc(C(=O)Nc2nc(-c3ccc(OC)cc3)cs2)cc1` [CBK287325], for which the “% of control remaining” value turned out to be 109.696.

As to `Cc1cccc(N2CCOC3(CCCC3)C2)n1` [CBK304446], the “% of control remaining” value is 64.783.

As to `O=C(NCc1ccc(Cl)c(Cl)c1)Nc1cccc(C(=O)O)c1` [CBK155461G], the “% of control remaining” value is given as 82.2687.

For `CCN1CCN(C(=O)c2cnccn2)CC1` [CBK200373], the “% of control remaining” value is listed as 113.047.

Take `O=C(NCc1ccccn1)/C(=N/O)c1ccccc1` [CBK288472]: the “% of control remaining” value was found to be 94.7953.

As for `CN(C)CCN(Cc1ccccc1)c1ccccc1` [CBK012223C], the “% of control remaining” value worked out at 106.922.

For the molecule `C/C(=N\c1ccccc1C(F)(F)F)c1ccncc1` [CBK021262], the “% of control remaining” value is on record as 102.655.

Take `Oc1c(Br)cc(Cl)cc1/C=N/Nc1nnc2c(n1)[nH]c1ccccc12` [CBK262041]: the “% of control remaining” value stood at 101.881.

As for `Cc1ccc2c(O)c(C(=O)NCc3cccs3)cnc2c1` [CBK159997], the “% of control remaining” value turned out to be 83.7489.

Consider `Cc1cnc(C(=O)NC2(c3ccc(Cl)cc3)CCC2)cn1` [CBK282775], for which the “% of control remaining” value turned out to be 101.755.

With `Cc1cc(C)c(NC(=O)CSc2nc(C)c(Cc3ccccc3)c(O)n2)c([N+](=O)[O-])c1` [CBK268715], the “% of control remaining” value is recorded as 108.367.

Consider `Nc1ncc(-c2ccoc2)nc1N1CCN(CCO)CC1` [CBK063428], for which the “% of control remaining” value amounted to 129.51.

Regarding `CCOC(=O)C1CCN(C(=O)c2cnn3c(C)c(Cc4cccc(Cl)c4)c(C)nc23)CC1` [CBK160305], the “% of control remaining” value was found to be 97.0376.

As to `COc1ccc(-c2ccccc2NC(=O)c2cc(-n3cccn3)ccc2Cl)cc1` [CBK285634], the “% of control remaining” value came out at 114.715.

Turning to `COCOc1ccc(-c2ncc(OC)nc2NC(=O)c2cc(C)oc2C)cc1` [CBK145249], the “% of control remaining” value was 99.154.

On to `Cn1cc(N2CCCC(NC(=O)Nc3cccc(C#N)c3)C2)cn1` (centres unmarked) [CBK305179], for which the “% of control remaining” value is 57.7255.

Turning to `Cc1cc(C)cc(CNC(=O)N(CCCO)Cc2ccncc2)c1` [CBK304335], the “% of control remaining” value was determined as 52.0745.

With `CN1CC[C@]2(c3ccc4c(c3)nnn4C)CC[C@@H](NC(=O)Nc3cccc(C(F)(F)F)c3F)C[C@H]12` [CBK067410], the “% of control remaining” value was 103.898.

With `Nc1nc(Cn2nc(-c3ccc(F)cc3)oc2=O)nc(Nc2ccc(F)cc2)n1` [CBK296742], the “% of control remaining” value is listed as 116.252.

`CCc1ccc(-c2csc(NS(=O)(=O)c3cccc(C(=O)O)c3)n2)cc1` [CBK296726]: the “% of control remaining” value was 101.333.

As to `CCOCCCNC(=O)c1cccc(S(=O)(=O)N2CCCC2)c1` [CBK305934], the “% of control remaining” value came to 34.9638.

As for `CC(C(=O)Nc1c(F)cc(F)cc1OC1CCNCC1)c1ccccc1` (centres unmarked) [CBK045896T], the “% of control remaining” value is 119.683.

In the case of `CCOc1ccc(NC(=O)c2c(O)c3ccccc3n(CC)c2=O)cc1` [CBK287771], the “% of control remaining” value is recorded as 86.7708.

Turning to `O=S(=O)(NC(c1ccccc1)c1ccccc1)c1ccc(Cl)cc1` [CBK261759], the “% of control remaining” value amounted to 98.0249.

As for `COc1ccc(Cl)cc1NC(=O)NCCN1CCCCC1` [CBK268169], the “% of control remaining” value amounted to 119.703.

`CC(C)Cc1[nH]nc(O)c1-c1ccccc1` [CBK075134]: the “% of control remaining” value stood at 99.0595.

For the molecule `CC(C)[C@H](CO)Nc1nc(-c2ccc(F)c(Cl)c2)cnc1N` [CBK063949], the “% of control remaining” value amounted to 109.78.

For `Cc1c(-c2ccnc(N3CCOCC3)n2)cnc2nc(-c3ccncc3)nn12` [CBK288551], the “% of control remaining” value is given as 79.4631.

On to `Cc1csc2c(C3CCCN(C(=O)c4ccnn4C)C3)nc(C)n12` (centres unmarked) [CBK285215], for which the “% of control remaining” value is 72.3696.

In the case of `COc1cccc(CNc2ccc3c4c(cccc24)CC3)c1OC` [CBK269688], the “% of control remaining” value was 95.0341.

On to `COc1cc(CCc2cc(O)n3nc(C)c(-c4ccc(Cl)cc4)c3n2)on1` [CBK285681], for which the “% of control remaining” value turned out to be 78.8665.

In the case of `CC1(C)OC(=O)CC1C(=O)N1CCCC(COc2ccccc2F)C1` (centres unmarked) [CBK282098], the “% of control remaining” value is 69.9169.

As for `COc1cccc(NC(=O)c2ccc(-c3ccsc3)nc2NCC2CC2)c1` [CBK106227], the “% of control remaining” value was found to be 81.9805.

For the molecule `O=C(CSc1nnc(-c2ccncc2)o1)c1ccccc1` [CBK070562], the “% of control remaining” value was 50.4208.

Consider `O=C(CCn1cnc2ccccc2c1=O)Nc1ccc(S(=O)(=O)N2CCCC2)cc1` [CBK267642], for which the “% of control remaining” value was determined as 110.018.

In the case of `O=c1cccc2n1CC1CC2CN(Cc2cccc(OCc3ccccc3)c2)C1` (centres unmarked) [CBK262426], the “% of control remaining” value was 93.6992.

Turning to `COc1ccc(-c2nc3cc(C(C)C)ccc3o2)cc1NC(=O)Cc1ccc(Cl)cc1` [CBK266409], the “% of control remaining” value is given as 112.846.

Regarding `CC(c1nc(N)nc(N(C)C)n1)N(C)CCOc1ccccc1F` (centres unmarked) [CBK306053], the “% of control remaining” value came out at 31.9415.

For the molecule `COc1ccc(-c2cnc(N)c(N[C@@H](C)c3ccccc3)n2)c(OC)c1OC` [CBK063763], the “% of control remaining” value turned out to be 116.9.

Take `CC1CC1C(=O)N(C)C1CCN(c2ncnc3ccccc23)CC1` (centres unmarked) [CBK304972]: the “% of control remaining” value came out at 44.0254.

Regarding `CC(=O)Oc1ccc(C(=O)Nc2ccc3c(c2)C(=O)N(CCC(=O)O)C3=O)cc1` [CBK265997], the “% of control remaining” value was determined as 86.2819.

`CC(C)(O)C#Cc1ccc(C(=O)NCCCNC(=O)c2ccc(C#CC(C)(C)O)s2)s1` [CBK267142]: the “% of control remaining” value was found to be 119.561.

Take `COc1ccc(C)cc1S(=O)(=O)N1CCCC(C(=O)NCc2ccccn2)C1` (centres unmarked) [CBK268503]: the “% of control remaining” value was determined as 95.1198.

In the case of `CC(C)c1nnc(SCc2ccc(CSc3nnc(C(C)C)n3N)cc2)n1N` [CBK267911], the “% of control remaining” value was 99.7808.

Take `Cc1cc2oc(=O)c3c(c2cc1C)CCN(C)C3` [CBK017803]: the “% of control remaining” value was found to be 104.375.

Regarding `CCCc1[nH]nc(O)c1Cc1c(F)cccc1[N+](=O)[O-]` [CBK075029], the “% of control remaining” value is 75.7993.

With `O=C1CCc2cc(S(=O)(=O)Nc3ccc(OCc4ccccc4)cc3)ccc2N1` [CBK286365], the “% of control remaining” value came out at 93.2387.

As for `Cc1cc(C)cc(NC(=O)N2CCN(c3nccnc3NS(C)(=O)=O)CC2)c1` [CBK048877], the “% of control remaining” value was 93.8504.

On to `Oc1ccc(-c2n[nH]cc2-c2cnn(-c3ccccc3)c2)c(O)c1O` [CBK266948], for which the “% of control remaining” value was determined as 96.3268.

As to `COc1cc2c(cc1OC)C(CCN1CCN(c3ccccc3C)CC1)OCC(C)(C)C2` (centres unmarked) [CBK024043C], the “% of control remaining” value is listed as 45.1444.

As to `N#Cc1c(NC(=O)CSc2nnc(-c3ccc(Cl)cc3)o2)oc(-c2ccccc2)c1-c1ccccc1` [CBK267655], the “% of control remaining” value is listed as 103.596.

`O=C(c1c(F)cccc1F)N1CCCC2(CCN(Cc3ccccc3)C2)C1` (centres unmarked) [CBK136886]: the “% of control remaining” value turned out to be 66.1303.

For the molecule `Cc1cc(COc2nc3ccccc3nc2NCCC(C)O)no1` (centres unmarked) [CBK173999], the “% of control remaining” value was found to be 88.3228.

As to `Clc1ccc(-c2c[nH]c([C@@H]3COCCN3Cc3csnn3)n2)cc1` [CBK289309], the “% of control remaining” value was found to be 102.918.

In the case of `Cc1ccc(-c2nccnc2OCCN2C(=O)c3ccccc3C2=O)c(C)c1` [CBK106981], the “% of control remaining” value worked out at 89.3678.

On to `CC(=O)Nc1ccc(Sc2cnccn2)cc1` [CBK085838], for which the “% of control remaining” value is given as 84.9353.

Take `Cc1n[nH]c(C)c1CCCCCOc1ccccc1` [CBK027211C]: the “% of control remaining” value worked out at 83.4297.

Take `O=C(c1ccncc1)N1C2CCC1CC(O)(c1ccc(F)cc1)C2` (centres unmarked) [CBK283545]: the “% of control remaining” value is 115.998.
